# No constants are given. Whether binding was seen depends on the method and setting. Binding seen in cells or lysates may run through a third protein. Some results given as binding are weak or reduced against the parent protein; the word gives no strength. For some of these results: Tags and fused reporters may be left off the sequences shown.
# By UniProt entry, the sequences of proteins in these tests, tags left out.
# UniProt P24863: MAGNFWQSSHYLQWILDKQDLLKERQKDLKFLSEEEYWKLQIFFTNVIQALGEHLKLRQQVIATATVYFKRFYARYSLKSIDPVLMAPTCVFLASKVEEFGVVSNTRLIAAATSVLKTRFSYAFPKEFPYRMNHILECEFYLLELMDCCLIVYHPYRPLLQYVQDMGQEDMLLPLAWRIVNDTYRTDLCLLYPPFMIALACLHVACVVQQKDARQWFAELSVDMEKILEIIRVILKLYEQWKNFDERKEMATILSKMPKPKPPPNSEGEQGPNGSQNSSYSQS
# UniProt P49336: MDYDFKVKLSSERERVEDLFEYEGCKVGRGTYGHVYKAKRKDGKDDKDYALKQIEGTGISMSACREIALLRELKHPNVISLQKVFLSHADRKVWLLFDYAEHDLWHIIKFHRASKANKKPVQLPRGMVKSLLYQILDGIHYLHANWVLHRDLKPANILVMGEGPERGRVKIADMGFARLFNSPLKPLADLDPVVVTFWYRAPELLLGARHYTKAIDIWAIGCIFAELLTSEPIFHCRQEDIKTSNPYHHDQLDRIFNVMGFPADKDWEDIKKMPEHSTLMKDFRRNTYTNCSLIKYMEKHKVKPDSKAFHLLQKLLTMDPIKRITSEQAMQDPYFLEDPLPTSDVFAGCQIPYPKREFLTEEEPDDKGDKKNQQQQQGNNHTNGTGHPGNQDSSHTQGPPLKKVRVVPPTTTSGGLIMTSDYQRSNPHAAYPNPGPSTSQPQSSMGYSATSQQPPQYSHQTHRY
# UniProt Q9BWU1: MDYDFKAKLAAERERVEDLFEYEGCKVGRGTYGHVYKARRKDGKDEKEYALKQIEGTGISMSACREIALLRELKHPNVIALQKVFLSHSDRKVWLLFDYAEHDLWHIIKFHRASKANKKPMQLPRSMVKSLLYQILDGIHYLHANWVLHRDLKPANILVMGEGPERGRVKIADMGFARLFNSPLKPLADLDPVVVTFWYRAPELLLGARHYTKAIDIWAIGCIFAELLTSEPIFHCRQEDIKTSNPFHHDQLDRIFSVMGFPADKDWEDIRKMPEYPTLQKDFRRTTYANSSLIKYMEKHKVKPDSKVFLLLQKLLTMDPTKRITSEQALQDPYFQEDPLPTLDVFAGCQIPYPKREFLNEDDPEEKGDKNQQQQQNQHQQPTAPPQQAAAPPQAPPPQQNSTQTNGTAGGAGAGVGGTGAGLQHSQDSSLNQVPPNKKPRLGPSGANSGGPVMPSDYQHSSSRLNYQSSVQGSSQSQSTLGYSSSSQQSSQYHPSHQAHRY
# UniProt Q9UHV7: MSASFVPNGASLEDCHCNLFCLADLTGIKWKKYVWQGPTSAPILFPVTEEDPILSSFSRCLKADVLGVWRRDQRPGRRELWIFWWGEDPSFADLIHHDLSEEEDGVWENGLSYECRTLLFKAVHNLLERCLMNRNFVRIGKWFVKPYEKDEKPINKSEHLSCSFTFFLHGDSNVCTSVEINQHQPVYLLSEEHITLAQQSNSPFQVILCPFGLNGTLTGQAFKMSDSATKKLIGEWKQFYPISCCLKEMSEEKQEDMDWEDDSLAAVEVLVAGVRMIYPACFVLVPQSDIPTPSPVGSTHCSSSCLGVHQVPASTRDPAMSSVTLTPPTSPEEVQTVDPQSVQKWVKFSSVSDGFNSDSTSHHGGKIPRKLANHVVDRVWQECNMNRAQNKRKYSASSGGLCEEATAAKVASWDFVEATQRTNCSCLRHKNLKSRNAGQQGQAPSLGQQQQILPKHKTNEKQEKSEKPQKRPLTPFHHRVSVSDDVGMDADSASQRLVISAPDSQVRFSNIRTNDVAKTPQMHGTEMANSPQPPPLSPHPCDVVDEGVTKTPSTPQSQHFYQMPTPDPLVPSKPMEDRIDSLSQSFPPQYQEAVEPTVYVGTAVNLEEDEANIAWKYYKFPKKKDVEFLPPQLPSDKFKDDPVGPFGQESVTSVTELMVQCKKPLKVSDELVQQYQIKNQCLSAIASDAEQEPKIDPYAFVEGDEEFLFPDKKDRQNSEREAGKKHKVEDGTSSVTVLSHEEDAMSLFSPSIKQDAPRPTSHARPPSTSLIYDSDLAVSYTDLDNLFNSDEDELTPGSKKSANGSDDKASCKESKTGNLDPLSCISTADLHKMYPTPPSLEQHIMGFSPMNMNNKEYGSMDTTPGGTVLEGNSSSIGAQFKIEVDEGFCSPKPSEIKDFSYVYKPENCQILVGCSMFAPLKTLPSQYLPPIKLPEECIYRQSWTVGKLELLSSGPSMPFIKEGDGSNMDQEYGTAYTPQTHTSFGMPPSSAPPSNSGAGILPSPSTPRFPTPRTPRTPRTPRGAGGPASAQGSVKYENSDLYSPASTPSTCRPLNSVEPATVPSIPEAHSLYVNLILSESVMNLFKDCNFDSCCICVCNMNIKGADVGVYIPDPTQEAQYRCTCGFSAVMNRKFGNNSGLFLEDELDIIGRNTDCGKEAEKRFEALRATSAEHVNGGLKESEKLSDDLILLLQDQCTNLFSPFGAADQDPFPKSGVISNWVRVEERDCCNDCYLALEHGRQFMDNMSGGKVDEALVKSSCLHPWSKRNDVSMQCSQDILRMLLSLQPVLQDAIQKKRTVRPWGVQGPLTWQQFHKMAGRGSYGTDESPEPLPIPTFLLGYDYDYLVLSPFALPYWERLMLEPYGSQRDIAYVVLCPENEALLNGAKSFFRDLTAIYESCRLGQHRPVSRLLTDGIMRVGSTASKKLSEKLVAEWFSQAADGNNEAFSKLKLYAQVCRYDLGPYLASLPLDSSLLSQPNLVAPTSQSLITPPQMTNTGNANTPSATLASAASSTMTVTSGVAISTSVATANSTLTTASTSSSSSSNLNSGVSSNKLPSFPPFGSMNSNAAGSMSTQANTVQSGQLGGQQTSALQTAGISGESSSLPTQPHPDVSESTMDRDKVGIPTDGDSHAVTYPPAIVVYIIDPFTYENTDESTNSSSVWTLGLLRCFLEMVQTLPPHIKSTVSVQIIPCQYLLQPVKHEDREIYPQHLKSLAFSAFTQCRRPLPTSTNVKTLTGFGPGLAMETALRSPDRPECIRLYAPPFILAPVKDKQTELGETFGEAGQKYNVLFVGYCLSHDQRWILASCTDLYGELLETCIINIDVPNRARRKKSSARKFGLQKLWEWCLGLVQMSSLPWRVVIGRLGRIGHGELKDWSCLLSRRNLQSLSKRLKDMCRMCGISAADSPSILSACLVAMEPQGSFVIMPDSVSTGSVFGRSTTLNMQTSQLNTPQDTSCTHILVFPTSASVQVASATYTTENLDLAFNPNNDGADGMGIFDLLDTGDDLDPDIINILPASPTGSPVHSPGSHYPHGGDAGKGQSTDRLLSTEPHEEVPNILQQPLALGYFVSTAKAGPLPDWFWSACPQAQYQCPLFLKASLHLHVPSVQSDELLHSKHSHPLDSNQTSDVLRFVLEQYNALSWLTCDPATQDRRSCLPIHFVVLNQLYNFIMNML
# UniProt Q7Z2Z1: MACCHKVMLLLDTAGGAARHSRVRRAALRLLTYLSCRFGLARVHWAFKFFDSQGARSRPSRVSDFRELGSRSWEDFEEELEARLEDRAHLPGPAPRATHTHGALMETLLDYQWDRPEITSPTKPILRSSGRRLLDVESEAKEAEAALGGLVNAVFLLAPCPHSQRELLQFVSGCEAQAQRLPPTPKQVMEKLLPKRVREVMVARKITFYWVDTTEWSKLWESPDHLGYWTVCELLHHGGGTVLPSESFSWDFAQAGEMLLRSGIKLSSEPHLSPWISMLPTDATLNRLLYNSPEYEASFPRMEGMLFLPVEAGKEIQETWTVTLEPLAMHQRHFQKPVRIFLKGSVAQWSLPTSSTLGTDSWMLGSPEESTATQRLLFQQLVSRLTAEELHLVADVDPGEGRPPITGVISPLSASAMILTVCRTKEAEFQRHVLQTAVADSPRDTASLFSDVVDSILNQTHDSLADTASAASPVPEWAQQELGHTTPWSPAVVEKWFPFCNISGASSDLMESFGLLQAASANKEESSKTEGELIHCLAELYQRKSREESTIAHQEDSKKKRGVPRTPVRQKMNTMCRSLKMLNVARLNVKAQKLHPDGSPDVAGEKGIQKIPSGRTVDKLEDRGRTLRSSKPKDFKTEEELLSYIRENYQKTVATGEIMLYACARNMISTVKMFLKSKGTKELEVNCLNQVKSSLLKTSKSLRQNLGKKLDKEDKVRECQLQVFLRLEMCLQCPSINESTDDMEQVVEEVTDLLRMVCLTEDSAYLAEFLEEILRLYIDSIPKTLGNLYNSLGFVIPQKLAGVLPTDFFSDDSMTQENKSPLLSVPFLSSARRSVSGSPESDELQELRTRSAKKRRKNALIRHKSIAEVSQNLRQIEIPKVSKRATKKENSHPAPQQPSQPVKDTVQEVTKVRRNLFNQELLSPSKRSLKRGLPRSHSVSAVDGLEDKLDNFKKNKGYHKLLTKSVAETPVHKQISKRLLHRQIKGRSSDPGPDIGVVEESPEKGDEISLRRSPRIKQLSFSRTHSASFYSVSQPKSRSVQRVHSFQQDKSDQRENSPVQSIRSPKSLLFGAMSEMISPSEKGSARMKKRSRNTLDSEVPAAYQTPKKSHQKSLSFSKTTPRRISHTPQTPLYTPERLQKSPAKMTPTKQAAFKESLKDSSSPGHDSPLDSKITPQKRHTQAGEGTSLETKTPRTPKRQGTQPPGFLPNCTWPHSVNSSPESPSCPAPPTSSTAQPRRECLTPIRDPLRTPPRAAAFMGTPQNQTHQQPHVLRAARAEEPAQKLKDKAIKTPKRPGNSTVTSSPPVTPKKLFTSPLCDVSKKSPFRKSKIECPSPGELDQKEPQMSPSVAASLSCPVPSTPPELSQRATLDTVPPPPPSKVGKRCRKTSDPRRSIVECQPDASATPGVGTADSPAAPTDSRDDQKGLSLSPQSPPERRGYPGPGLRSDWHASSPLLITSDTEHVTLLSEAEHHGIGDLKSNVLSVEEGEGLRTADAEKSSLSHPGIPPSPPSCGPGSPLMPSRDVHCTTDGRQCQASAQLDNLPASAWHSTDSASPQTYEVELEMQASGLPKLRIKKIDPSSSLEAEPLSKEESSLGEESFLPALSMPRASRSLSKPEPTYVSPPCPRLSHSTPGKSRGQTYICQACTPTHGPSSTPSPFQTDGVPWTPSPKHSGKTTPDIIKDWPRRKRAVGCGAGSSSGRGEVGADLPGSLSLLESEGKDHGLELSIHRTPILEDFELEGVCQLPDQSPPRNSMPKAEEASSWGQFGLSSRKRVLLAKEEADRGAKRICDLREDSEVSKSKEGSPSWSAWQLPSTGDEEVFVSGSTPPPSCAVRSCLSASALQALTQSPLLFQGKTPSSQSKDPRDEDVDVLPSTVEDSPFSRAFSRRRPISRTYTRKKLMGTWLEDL
# Experiments:
# [1] = molecular target: T1, MTBP fragment of amino acids R595 to P704 (293T) (human) (UniProt Q96DY7); assay: co-IP; 293T transiently transfected with N- or C-terminal MTBP fragments; IP from native lysates with anti-GFP (S12B panel i) or anti-Cdk8 (panels ii, iii); the panel of this fragment is not told
# T1 sequence: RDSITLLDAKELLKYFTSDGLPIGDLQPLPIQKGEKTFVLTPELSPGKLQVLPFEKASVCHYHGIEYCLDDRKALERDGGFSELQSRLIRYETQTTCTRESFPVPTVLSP
# [2] = molecular target: T2, MTBP (Mdm2 binding protein), endogenous (human (endogenous in HeLa and 293T)) (UniProt Q96DY7); assay: co-IP; antibodies to endogenous MTBP, cyclin C, Cdk8 or TopBP1 (control IgG) on Protein G Dynabeads in native lysates of HeLa Flip-In T-Rex, HeLa-Kyoto or 293T cells, 150 mM NaCl, 0.1% Triton X-100, 2 h at 4°C; unsynchronised or synchronised cells (M, G1, G1/S, S); TopBP1 IP with or without Cdk2-cyclin A and ATP added to the lysate
# T2 sequence: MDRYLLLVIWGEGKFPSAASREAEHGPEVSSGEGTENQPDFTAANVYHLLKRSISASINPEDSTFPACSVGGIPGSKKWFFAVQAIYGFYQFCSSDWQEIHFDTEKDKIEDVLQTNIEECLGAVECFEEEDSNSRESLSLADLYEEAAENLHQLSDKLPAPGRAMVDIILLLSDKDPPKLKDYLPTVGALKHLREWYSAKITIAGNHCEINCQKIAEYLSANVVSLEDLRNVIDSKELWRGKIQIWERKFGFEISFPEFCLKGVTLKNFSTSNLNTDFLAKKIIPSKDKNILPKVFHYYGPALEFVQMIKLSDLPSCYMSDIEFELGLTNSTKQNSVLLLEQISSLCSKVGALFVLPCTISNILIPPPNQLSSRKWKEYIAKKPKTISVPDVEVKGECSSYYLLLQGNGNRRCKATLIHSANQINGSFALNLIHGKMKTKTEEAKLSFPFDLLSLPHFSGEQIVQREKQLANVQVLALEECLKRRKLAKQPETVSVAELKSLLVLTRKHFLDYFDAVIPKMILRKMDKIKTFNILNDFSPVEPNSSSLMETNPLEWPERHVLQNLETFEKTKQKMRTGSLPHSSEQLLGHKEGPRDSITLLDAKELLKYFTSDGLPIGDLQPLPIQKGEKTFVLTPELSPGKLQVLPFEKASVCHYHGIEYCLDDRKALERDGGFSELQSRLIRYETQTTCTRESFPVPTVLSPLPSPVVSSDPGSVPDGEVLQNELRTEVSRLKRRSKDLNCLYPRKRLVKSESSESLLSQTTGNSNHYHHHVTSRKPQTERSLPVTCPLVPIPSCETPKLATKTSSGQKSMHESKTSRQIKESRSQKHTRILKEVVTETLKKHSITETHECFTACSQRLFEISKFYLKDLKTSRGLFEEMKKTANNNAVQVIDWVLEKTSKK
# [3] = molecular target: T3, C-terminal MTBP-A516–K904 fragment (293T) (human) (UniProt Q96DY7); assay: co-IP; 293T transiently transfected with GFP-tagged MTBP or Treslin/TICRR; anti-GFP nanobodies on NHS sepharose, lysis buffer with 250 mM NaCl, 1 h at 4°C; endogenous partners by immunoblot
# T3 sequence: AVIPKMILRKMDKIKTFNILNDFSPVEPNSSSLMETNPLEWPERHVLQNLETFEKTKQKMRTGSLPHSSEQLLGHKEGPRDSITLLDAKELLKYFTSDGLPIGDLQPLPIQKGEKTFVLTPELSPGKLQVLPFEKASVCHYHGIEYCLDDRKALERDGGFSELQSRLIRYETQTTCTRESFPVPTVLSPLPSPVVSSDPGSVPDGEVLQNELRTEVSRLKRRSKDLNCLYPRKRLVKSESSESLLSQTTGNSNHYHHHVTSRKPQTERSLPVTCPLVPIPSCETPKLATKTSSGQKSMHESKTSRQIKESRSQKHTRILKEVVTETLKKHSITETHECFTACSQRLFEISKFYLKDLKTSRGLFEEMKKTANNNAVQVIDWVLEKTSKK
# [4] = molecular target: T4, MTBP TresBD fragment (Treslin/TICRR binding domain) (293T) (human) (UniProt Q96DY7); assay: as above
# T4 sequence: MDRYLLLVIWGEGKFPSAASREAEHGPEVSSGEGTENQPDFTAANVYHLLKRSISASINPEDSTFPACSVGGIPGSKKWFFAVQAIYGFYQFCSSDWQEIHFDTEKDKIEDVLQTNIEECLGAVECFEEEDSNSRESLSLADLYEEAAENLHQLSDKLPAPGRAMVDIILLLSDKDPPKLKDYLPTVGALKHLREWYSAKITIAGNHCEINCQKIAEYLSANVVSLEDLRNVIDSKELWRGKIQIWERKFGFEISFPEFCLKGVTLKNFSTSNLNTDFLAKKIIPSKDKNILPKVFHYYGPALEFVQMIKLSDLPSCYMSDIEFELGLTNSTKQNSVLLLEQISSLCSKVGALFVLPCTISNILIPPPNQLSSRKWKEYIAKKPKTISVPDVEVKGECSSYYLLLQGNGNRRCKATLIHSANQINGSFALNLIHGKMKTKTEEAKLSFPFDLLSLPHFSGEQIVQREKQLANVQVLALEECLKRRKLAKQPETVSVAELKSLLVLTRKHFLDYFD
# [5] = molecular target: T5, MTBP-WT, C-terminally 3×Flag-tagged (293T) (human) (UniProt Q96DY7); assay: co-IP; 293T transiently transfected with C-terminally 3×Flag-tagged MTBP; anti-FLAG antibody on Protein G Dynabeads, lysis buffer 20 mM HEPES, 150 mM NaCl, 10% glycerol, 0.1% Triton X-100, 1 h at 4°C; endogenous Treslin/TICRR and Cdk8 by immunoblot
# T5 sequence: T2 sequence
# [6] = molecular target: cyclin C, endogenous (human (endogenous in HeLa and 293T)) (UniProt P24863); assay: co-IP; antibodies to endogenous MTBP, cyclin C, Cdk8 or TopBP1 (control IgG) on Protein G Dynabeads in native lysates of HeLa Flip-In T-Rex, HeLa-Kyoto or 293T cells, 150 mM NaCl, 0.1% Triton X-100, 2 h at 4°C; unsynchronised or synchronised cells (M, G1, G1/S, S); TopBP1 IP with or without Cdk2-cyclin A and ATP added to the lysate
# [7] = molecular target: TopBP1 (Topoisomerase II binding protein 1), endogenous (human (endogenous in 293T)) (UniProt Q92547); assay: as above
# [8] = molecular target: T6, MTBP-WT, C-terminally Flag-GFP-tagged (293T) (human) (UniProt Q96DY7); assay: co-IP; 293T transiently transfected with GFP-tagged MTBP or Treslin/TICRR; anti-GFP nanobodies on NHS sepharose, lysis buffer with 250 mM NaCl, 1 h at 4°C; endogenous partners by immunoblot
# T6 sequence: T2 sequence
Substance,binding [2],binding [5],binding [8],further results
"Cdk8 (cyclin-dependent kinase 8), endogenous (from UniProt P49336 1-464) (enzyme)",binds,binds,,binding [1]: binds; binding [3]: binds; binding [4]: no binding
"Cdk19 (cyclin-dependent kinase 19), endogenous (from UniProt Q9BWU1 1-502) (enzyme)",binds,,,binding [6]: binds
"Med13 (mediator of transcription subunit 13), endogenous (from UniProt Q9UHV7 1-2174)",no binding,,,
"Treslin/TICRR (TopBP1-interacting replication stimulating protein/TopBP1-interacting checkpoint and replication regulator), endogenous (from UniProt Q7Z2Z1 1-1910)",,binds,binds,binding [7]: binds
"cyclin C, endogenous (from UniProt P24863 1-283)",binds,,binds,
